Among all 150,000 compounds or so, about 540 (0.36%) showed an effect of 50% or more. The list shows a part of the results.

The subject of the assay is Plasmodium falciparum. Nature of the assay: Primary screen in NF54 nanoGlo assay, in single point, at 2uM, 72h; a lower Z score goes with more inhibition. The following applies: timepoint 72 hour. Type of assay: functional, Erythrocyte.
One may read the % Inhibition as the relative decrease from the control value, in per cent. Regarding `CN(Cc1nccs1)CC(C)(CO)CO`, the “% Inhibition” value is -14% and the Z score stood at 1.96.

With `Cc1nn(-c2ccc3nncn3n2)c(C)c1CCC(=O)NCc1ccc(Cl)cc1`, the “% Inhibition” value stood at 1% and the Z score is listed as -0.15.

With `Cc1cc(NC(=O)N[C@@H]2CCCc3c(F)cc(F)cc32)n(C)n1`, the “% Inhibition” value is recorded as -2% and the Z score worked out at 0.43.

Consider `CCOC(=O)c1cc(C(C)(C)C)n(C2CCN(C(=O)C(C)(C)OC(C)=O)CC2)n1`, for which the “% Inhibition” value is given as -1% and the Z score came to 0.12.

Regarding `COc1ccc(C(=O)N2CCC3(CC2)c2nc[nH]c2CCN3C(C)=O)c(O)c1`, the “% Inhibition” value is reported as -12% and the Z score stood at 1.39.

For the molecule `Cc1nnsc1C(=O)NCc1nccc(N(C)C)n1`, the “% Inhibition” value was -3% and the Z score is reported as 0.59.

`C[C@H]1CN(C(=O)NCc2nc(C(C)(C)C)cs2)CC(=O)N1`: the “% Inhibition” value was -7% and the Z score came out at 0.72.

Turning to `Cc1ccsc1CN1CC[C@H](CO)[C@H](NC(=O)c2cccnc2)C1`, the “% Inhibition” value is given as -19% and the Z score was found to be 2.61.

Turning to `O=c1nc(C2CC2)ccn1CCCOCCc1ccccc1`, the “% Inhibition” value is -4% and the Z score is 0.46.

For `Cc1csc(CN2CC[C@H]2c2ccc(F)cc2)n1`, the “% Inhibition” value is reported as -7% and the Z score is recorded as 0.89.

As for `Cc1ccc(Oc2ncc(Cn3ccc4ccccc43)s2)cc1`, the “% Inhibition” value was -7% and the Z score worked out at 0.85.

Take `N#Cc1cccnc1NCCCOC1CCOCC1`: the “% Inhibition” value is recorded as 8% and the Z score is listed as -1.42.

With `CCN(C(=O)c1ccccc1-c1nnn[nH]1)[C@H]1CCCC[C@@H]1O`, the “% Inhibition” value worked out at 11% and the Z score is -1.41.

For `COC1(CN2CCn3c(n[nH]c3=O)C2)CCCC1`, the “% Inhibition” value is listed as -4% and the Z score is given as 0.77.

On to `Cc1cc(C(=O)N(CC(=O)O)CC2CC2)sc1C`, for which the “% Inhibition” value is on record as -7% and the Z score is recorded as 0.62.

On to `CNc1ccccc1C(=O)NCC1CCCOC1C(C)C` (stereo not drawn), for which the “% Inhibition” value is -11% and the Z score came to 1.75.

For the molecule `COc1ccc(CN(Cc2ccco2)C(=O)c2cccc(C(F)(F)F)c2)cc1OS(=O)(=O)c1cccc(C(F)(F)F)c1`, the “% Inhibition” value is given as 4% and the Z score is -0.49.

For the molecule `O=C1NCCN(C(=O)CN2CCCCCC2)[C@H]1c1cccc(F)c1`, the “% Inhibition” value is -13% and the Z score turned out to be 1.83.

Take `CC(C)(O)Cn1ncnc1-c1sccc1Cl`: the “% Inhibition” value was -16% and the Z score was determined as 2.12.

In the case of `c1ccc2sc(N3CCCN(C[C@@H]4CCCN5CCCC[C@H]45)CC3)nc2c1`, the “% Inhibition” value is 4% and the Z score was -0.5.

As for `CC(C)C(=O)N1CCN(c2nc3c(s2)C[C@@H](C(=O)NCc2ccccc2)CC3)CC1`, the “% Inhibition” value was -9% and the Z score is reported as 1.35.

Consider `O=S(=O)(Cc1ccccc1)NCC1CN(CC(F)(F)F)C1`, for which the “% Inhibition” value is listed as -2% and the Z score came out at 0.3.

Turning to `CC(C)C[C@@H]1NC(=O)[C@H](CCCNC(N)=O)NC1=O`, the “% Inhibition” value worked out at 2% and the Z score is recorded as -0.38.

Turning to `COCc1nn2c(c1-c1ccccc1)NC(=O)C[C@H]2C(=O)Nc1cccc(OC)c1`, the “% Inhibition” value is given as -18% and the Z score is listed as 2.34.

For the molecule `COC(=O)N1CCC(NC(=O)[C@@H](C)Cc2ccc(C)cc2)CC1`, the “% Inhibition” value is given as -14% and the Z score was 1.16.

As for `COc1cnccc1C(C)NC(=O)NCC(O)c1cc(C)cc(C)c1` (stereo not drawn), the “% Inhibition” value is -2% and the Z score worked out at 0.26.

For the molecule `CCS(=O)(=O)N(C)C1CCN([C@@H](C)C(=O)NC(C)(C)C)CC1`, the “% Inhibition” value is on record as -8% and the Z score was 1.56.

With `O=C1CN(c2nc(-c3ccccc3)nc3c2CCNC3)CCN1`, the “% Inhibition” value is recorded as -14% and the Z score stood at 2.47.

As for `OC[C@H]1CN(c2nc(-c3ccccc3)cs2)C[C@H]1CN1CCC(O)CC1`, the “% Inhibition” value is on record as -13% and the Z score is reported as 2.28.

As to `CCN(CC)C(=O)CCNC(=O)[C@H](C)NC(=O)CC1CCCCC1`, the “% Inhibition” value is given as -2% and the Z score worked out at 0.49.

Regarding `O=C(c1cc(F)cc(F)c1)N1CCN(c2nnc3ccc(Cl)cn23)CC1`, the “% Inhibition” value is 35% and the Z score is recorded as -3.99.

Turning to `Clc1ccc2c(c1)/C(c1ccccc1Cl)=N\c1ccc(Cl)cc1/C(c1ccccc1Cl)=N\2`, the “% Inhibition” value is given as -25% and the Z score amounted to 4.34.

Turning to `Cc1ccsc1C(=O)N1CC2CC1CS2(=O)=O` (stereo not drawn), the “% Inhibition” value is recorded as -14% and the Z score is 1.62.

On to `O=C(CN1CCCCC1=O)Nc1cccnc1C1CC1`, for which the “% Inhibition” value worked out at 8% and the Z score is given as -0.91.

Regarding `Cc1nc([C@H](C)NC(=O)N(Cc2ccoc2)C2CC2)no1`, the “% Inhibition” value is reported as -11% and the Z score is on record as 1.46.

On to `C[C@@H]1N(C(=O)c2c[nH]nn2)CCOC1(C)C`, for which the “% Inhibition” value is recorded as -5% and the Z score is 0.95.

Turning to `O=C(Nc1cc(Cl)ccc1Oc1ccc2ccccc2c1Br)c1cc(Cl)cc(Cl)c1O`, the “% Inhibition” value is listed as -17% and the Z score came to 2.35.

For `O=C(NS(=O)(=O)[C@@H]1CC=CCC1)C1CCC(F)(F)CC1`, the “% Inhibition” value is 3% and the Z score is listed as -0.51.

`NC(=O)NC(=O)CCN1CCS(=O)(=O)c2ccccc2C1`: the “% Inhibition” value was -12% and the Z score is listed as 1.08.

Turning to `O=C1CCCN1CCC(=O)N1CCC[C@H](OCc2ccccc2)C1`, the “% Inhibition” value is listed as -14% and the Z score is 2.73.

Consider `O=C(N[C@H]1CCN(CCC(F)(F)F)C[C@@H]1O)c1ccccn1`, for which the “% Inhibition” value is recorded as -14% and the Z score turned out to be 1.29.

As for `CCNC(=O)c1ccc(NC[C@@]2(C)CCCO2)nc1`, the “% Inhibition” value is -10% and the Z score is reported as 1.25.

Take `C=CCCC(=O)N1CCCC[C@H](c2ccccc2)C1`: the “% Inhibition” value is on record as -9% and the Z score is given as 1.32.

As to `CC(=O)N1CC2=Nc3cccc4c3c(cn4CCC(C)C)[C@H](c3cccc4cccnc34)C2=C1O`, the “% Inhibition” value was -10% and the Z score is 1.35.

Take `CCCCC(C(=O)NC(C)c1ccccc1)C(=O)NC(C)c1ccccc1` (stereo not drawn): the “% Inhibition” value is recorded as -1% and the Z score came out at 0.22.

For `Cn1ccc(-c2noc(COc3nsnc3N3CCOCC3)n2)n1`, the “% Inhibition” value is -6% and the Z score is reported as 1.21.

As for `COc1ccc(-c2nc3cnccn3c2Nc2ccc3c(c2)OCO3)cc1OC`, the “% Inhibition” value is reported as 1% and the Z score is listed as -0.1.

`COCc1nc(C)cc(N2CC[C@H](N(C)c3cccc(C#N)c3)C2)n1`: the “% Inhibition” value came to 0% and the Z score was determined as 0.04.

`CC(C)(C)Oc1ccc(CNC(=O)[C@H]2CCc3cncn3C2)cn1`: the “% Inhibition” value is listed as -6% and the Z score stood at 0.91.

Regarding `CCc1nc(NC(=O)CNC(=O)c2ccsc2)sc1C`, the “% Inhibition” value is listed as 10% and the Z score is listed as -1.2.

Take `COC(=O)c1cc(NC(=O)C2CC(C)(C)C2)n(C)n1`: the “% Inhibition” value is 1% and the Z score was -0.13.

For `Cn1c(=O)[nH]cc(C(=O)N2CCOC[C@H]2c2nc(-c3ccccc3)no2)c1=O`, the “% Inhibition” value is recorded as -2% and the Z score was determined as 0.2.

For the molecule `C=CCn1c([C@H](C)OC(C)C)n[nH]c1=O`, the “% Inhibition” value is recorded as -4% and the Z score was determined as 0.49.

Regarding `CNC(=O)[C@@H]1CCCCN1S(=O)(=O)c1cccc(-n2cnnn2)c1`, the “% Inhibition” value was -7% and the Z score was 0.79.

Source of the values: ChEMBL document CHEMBL4888484, “Replenishing the malaria drug discovery pipeline: Screening and hit evaluation of the MMV Hit Generation Library 1 (HGL1) against asexual blood stage Plasmodium falciparum ,using a nano luciferase reporter read-out” (2022).
